Results on 96 molecules are retold here after PubChem BioAssay AID1159614 (National Center for Advancing Translational Sciences (NCATS), 2016).

Among all 45,000 compounds or so, about 65 (0.1%) were called active. Calls follow the shape of the dose curve; as a rule, active = well fitted activation curve with a large enough effect; inconclusive = small, poorly fitted or top-dose-only effect; inactive = no such curve, though single readings can be large or run the other way. Some of the results follow.

In this test the target is Galactocerebrosidase (Homo sapiens) (UniProt P54803). The test can be described thus: A Novel Cell-Based Assay to Identify Small Molecules for B -Galactocerebrosidase. Also: 0% is about no effect; nearly all actives have a fitted effect of over 65% in size. The conditions noted are these: 145M-Twi-hGALC-G270D cells (Twitcher mouse brain line with human GALC G270D), HMU-beta-Gal fluorescence, 48 h; series mostly up to 57.5 µM; activation: at the top concentration. In a few lines: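 Live 145M-Twi cells (Twitcher mouse brain-derived, GALC-null) stably expressing human GALC-G270D, with a wild-type GALC line, were compound-treated. Residual GALC activity was then read as fluorescence from 0.1 mM final HMU-β-gal at pH 5.2; higher signal means activation.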
UniProt P54803, sequence (P54803 whole entry, looked up): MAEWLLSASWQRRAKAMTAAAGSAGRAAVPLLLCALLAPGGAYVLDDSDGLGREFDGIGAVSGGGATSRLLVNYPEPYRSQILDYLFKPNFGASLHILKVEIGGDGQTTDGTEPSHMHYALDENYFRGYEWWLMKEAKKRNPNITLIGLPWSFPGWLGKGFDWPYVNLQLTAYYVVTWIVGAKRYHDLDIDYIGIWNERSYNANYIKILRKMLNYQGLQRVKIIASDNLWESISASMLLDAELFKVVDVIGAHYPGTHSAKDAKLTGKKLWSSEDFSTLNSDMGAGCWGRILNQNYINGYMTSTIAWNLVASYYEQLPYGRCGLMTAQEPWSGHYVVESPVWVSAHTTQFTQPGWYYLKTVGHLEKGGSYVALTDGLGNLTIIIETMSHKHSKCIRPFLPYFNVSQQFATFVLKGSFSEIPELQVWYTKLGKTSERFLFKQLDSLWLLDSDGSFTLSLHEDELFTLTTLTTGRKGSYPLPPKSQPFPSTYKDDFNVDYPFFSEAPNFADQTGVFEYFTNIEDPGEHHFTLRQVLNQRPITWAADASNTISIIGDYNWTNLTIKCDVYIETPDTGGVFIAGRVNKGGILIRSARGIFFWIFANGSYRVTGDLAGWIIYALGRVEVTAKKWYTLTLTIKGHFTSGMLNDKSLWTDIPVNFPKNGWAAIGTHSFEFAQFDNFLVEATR
On to `Cc1ccc(C)c(-n2nnc(C(=O)Nc3ccc(Br)cc3)c2C)c1`, for which the “activation” value was inactive: -8.12%.

For `NS(=O)(=O)c1ccc(NC(=O)c2csnn2)cc1`, the “activation” value is inactive: -16.6%. As for `CC(C)c1ccc(NC(=O)c2cnc3sc(N4CCOCC4)nn3c2=O)cc1`, the “activation” value was inactive: 6.29%. Regarding `COc1ccc(NC(=O)CN(C)S(=O)(=O)c2ccc3c(c2)c(=O)n(C)c(=O)n3C)cc1`, the “activation” value was inactive: -6.56%.

As for `COc1ccc(OC)c(NC(=O)Cn2cnc3onc(-c4ccc(Cl)cc4)c3c2=O)c1`, the “activation” value was inactive: -1.57%. With `COc1cccc(-c2nc(CS(=O)(=O)CC(=O)NCCc3ccc(Cl)cc3)c(C)o2)c1` the figure was inactive: -17.7%; with `Cc1ccc(-n2ncc3c(Nc4cccc(C(F)(F)F)c4)ncnc32)cc1C`, inactive: 3.54%. With `Cc1cc2c(cc1S(=O)(=O)NCc1ccccc1Cl)OCC(=O)N2`, the “activation” value was inactive: -9.84%.

For the molecule `Cc1cc(C)cc(NC(=O)COCc2cc(-c3ccc4c(c3)OCO4)on2)c1`, the “activation” value was inactive: -15.3%.

With `CCOCCn1c(=O)c2c(nc3n2CCN3c2ccc(C)c(C)c2)n(C)c1=O`, the “activation” value was inactive: -13%. With `COc1cccc(N2CCN(C(=O)C3CCN(S(=O)(=O)c4cn(C)cn4)CC3)CC2)c1`, the “activation” value is inactive: -12.7%.

In the case of `CC1CCCCN1C(=O)CSc1c2c(nc3cc(Cl)ccc13)CCCC2` (stereo unspecified), the “activation” value is inactive: -16.1%. Turning to `CCc1ccc(-n2nc(CO)c(C(=O)NCc3cccs3)n2)cc1`, the “activation” value was inactive: -12.2%.

As for `COc1ccc(-c2nc3ccc(Cl)cn3c2Nc2ccc(C)cc2)cc1`, the “activation” value is inactive: -6.9%. Consider `CCCCNC(=O)c1cn(C)c2ccc(S(=O)(=O)N3CCCC3)cc2c1=O`, for which the “activation” value is inactive: -14.5%. As to `Cc1ccc(C(=O)NCC(c2ccco2)S(=O)(=O)c2ccc(Cl)cc2)cc1C` (stereo unspecified), the “activation” value was inactive: -20.7%.

As to `COc1ccc(OCC2c3cc(OC)c(OC)cc3CCN2C(=O)c2c(F)cccc2F)cc1` (stereo unspecified), the “activation” value is inactive: -21.2%.

In the case of `Cc1ccc(NC(=O)CCn2c(=O)c3cccn3c3ccccc32)cc1Cl`, the “activation” value is inactive: -12.4%. With `O=C(CSc1nc(=O)n(Cc2ccco2)c2c1CCC2)NCc1ccc(Cl)cc1` the figure was inactive: -16.4%; with `COc1cc(OC)c(NC(=O)Cn2cnc3sc(C)c(S(=O)(=O)N4CCC(C)CC4)c3c2=O)cc1Cl`, inactive: -8.25%; with `COc1ccc(N2CC(NC(=O)C(=O)c3c(C)[nH]c4ccccc34)CC2=O)cc1` (stereo unspecified), inactive: -16.2%.

With `COc1ccccc1CNC(=O)CSc1nc(=O)[nH]c2c1CCCC2`, the “activation” value is inactive: -3.31%. Turning to `CCN(Cc1ccccc1)C(=O)Cn1c(=O)n(-c2ccc(Cl)c(Cl)c2)c(=O)c2c(C)c(C(=O)N(C)C)sc21`, the “activation” value is inactive: -9.61%. Next, `Cc1cc(C)c2nc(N(Cc3cccnc3)C(=O)Cc3ccccc3)sc2c1`: inactive: -8.58%; `Cc1cc(C)n(-c2nc3ccccc3nc2Nc2cc(Cl)ccc2C)n1`: inactive: -13.7%. `Cc1cc(NC(=O)Nc2nnc(N3CCCCC3)s2)ccc1Br`: the “activation” value was inactive: -14.3%.

Turning to `CC(C)(CC(=O)OCC(=O)Nc1ccccc1F)CC1=NS(=O)(=O)c2ccccc2N1`, the “activation” value is inactive: -7.83%. Turning to `CCOC(=O)Cn1c(=O)c2c(nc(N3CCOCC3)n2Cc2ccccc2)n(C)c1=O`, the “activation” value was inactive: -13.1%. Next, `O=C(COc1ccc([N+](=O)[O-])cc1)N1CCC(c2nc3ccccc3s2)CC1`: inactive: -22.7%; `CC(=O)c1cccc(-n2c(=O)c3c4c(sc3n(CC(=O)Nc3ccccc3F)c2=O)CN(C(C)=O)CC4)c1`: inactive: -4.45%. Next, `COc1cc(NC(=O)c2ccc3c(Cl)c4c(nc3c2)CCC4)cc(OC)c1OC`: inactive: -20.8%. In the case of `COc1cc(-c2ccc(=O)[nH]n2)ccc1OC(F)F`, the “activation” value was inactive: 6.54%.

Regarding `CCc1ccc(CNC(=O)C2CCN(c3nnc(C)c4c(C)n(-c5ccc(C)cc5)nc34)CC2)cc1`, the “activation” value was inactive: -10.8%. Consider `CCOc1ccc(N(C(C)C(=O)NCCSc2ccc(Cl)cc2)S(C)(=O)=O)cc1` (stereo unspecified), for which the “activation” value was inactive: -2.21%. `Cc1nc(N2CCOCC2)c2c(C(=O)N(C)Cc3ccccc3)c(C)oc2n1`: the “activation” value was inactive: -9.44%. With `CCOc1cccc2sc(N3CCN(C(=O)C(C)(C)C)CC3)nc12` the figure was inactive: -17.9%. Next, `O=C(Nc1nnc(S(=O)(=O)N2CCCCCC2)s1)c1ccccc1F`: inactive: -15.5%; `O=C(Cn1nc(-c2ccccc2)c2cnc3ccc(F)cc3c21)NC1CCCC1`: inactive: 0.182%. Next, `CCOC(=O)C1CCN(c2cc(C)nc3c(-c4ccccc4OC)c(C)nn23)CC1`: inactive: -3.67%; `Cc1ccc(-c2nnc(SCC(=O)N3CCCc4ccccc43)o2)cc1`: inactive: -7.69%; `Cc1cc(NC(=O)CSc2nc3c([nH]c4ccccc43)c(=O)n2-c2ccccc2F)no1`: inactive: -10.2%. Consider `CCCCNc1nc(Oc2ccc(=O)n(-c3ccccc3)n2)nc(N(CC)CC)n1`, for which the “activation” value was inactive: 5.21%. With `Cc1ccc(NC(=O)c2nnn(Cc3cccc(C(F)(F)F)c3)c2N)c(C)c1` the figure was inactive: -21.5%; with `COc1cccc(Cn2ccn(-c3ccc(F)cc3)c(=O)c2=O)c1`, inactive: -12.1%; with `O=C(Nc1ccc(Cl)cc1)N1CCC(CN2CCCCCC2)CC1`, inactive: -3.83%. Next, `Cc1ccc(C(=O)c2oc3ccccc3c2NC(=O)c2cc(=O)c3cc(C)ccc3o2)cc1`: inactive: -14%.

In the case of `CCNC(=O)C1CCCN(c2ncnc3onc(C)c23)C1` (stereo unspecified), the “activation” value was inactive: -6.6%. With `COC(=O)c1ccc(-n2nnc(-c3nc(-c4ccccc4Cl)no3)c2C)cc1` the figure was inactive: -12.1%; with `COc1ccc(NC(=O)Cn2cc(C(=O)c3ccncc3)c(=O)c3cc(C)ccc32)cc1Cl`, inactive: -24.8%.

`Cc1cccc(Cn2c(SCc3ccc(C(=O)NCc4ccccc4)cc3)nc3cccnc32)c1`: the “activation” value is inactive: -13.1%. Turning to `Cc1ccc(OCC(=O)Nc2ccc3c(c2)sc(=O)n3C)cc1`, the “activation” value is inactive: -12.6%.

In the case of `COc1ccc(-n2c(=O)[nH]c3cc(C(=O)NCCc4ccc(Cl)cc4)ccc3c2=O)cc1OC`, the “activation” value was inactive: -15.1%. Next, `CCOC(=O)c1c(NC(=O)COc2ccc(CC)cc2)sc2c1CCCC2`: inactive: 5.93%; `COc1cc(OC)cc(C(=O)Nc2ccc(-c3nc4ccccc4s3)c(C)c2)c1`: inactive: -10.1%; `CN1CCN(C(=O)Cn2c(-c3cccs3)cc3ccccc32)CC1`: inactive: -5.51%. As to `Cc1ccc(N2C(=O)CS(=O)(=O)C23C(=O)N(Cc2ccccc2C)c2ccccc23)cc1Cl` (stereo unspecified), the “activation” value is inactive: -25.5%. For the molecule `COc1ccc(NC(=O)Cn2nc(-c3ccccc3)c3cnc4ccc(C)cc4c32)cc1`, the “activation” value was inactive: -0.459%. With `Cc1ccc2c(=O)c(C(=O)c3ccccc3)cn(CC(=O)Nc3ccc(C)c(Cl)c3)c2n1` the figure was inactive: -9.16%; with `CCCNC(=O)c1ccc2c(c1)nc(C)n2-c1cccc(C)c1`, inactive: -14%. Turning to `Cc1nn(C)c2c1c(C(F)(F)F)cc(=O)n2C(C)C(=O)NCCC(C)C` (stereo unspecified), the “activation” value is inactive: -14.2%. With `Cc1ccc(-c2nc(C(=O)N3CCN(c4ccccc4)CC3)c3n2CCCCC3)cc1` the figure was inactive: -7.8%; with `CCC(Sc1ncccc1C(=O)Oc1ccccc1Cl)C(=O)Nc1ccccc1OC` (stereo unspecified), inactive: -1.84%. In the case of `COc1ccc(NC(=O)C(NC(=O)C2CCC(C)CC2)C(C)C)cc1` (stereo unspecified), the “activation” value is inactive: -12.9%. In the case of `Cc1ccc(C)c(CSc2nnc3[nH]c(=O)cc(-c4ccccc4)n23)c1`, the “activation” value is inactive: -3.44%. Next, `COc1ccc(CNC(=O)C2CCN(S(=O)(=O)c3ccc4c(c3)CCCN4C(C)=O)CC2)cc1`: inactive: -17.3%; `CCc1ccccc1NC(=O)c1sc(-n2nc(C)c(Cc3ccccc3)c2C)nc1C`: inactive: 0.922%; `COCc1cc(C)nc2sc3c(=O)n(-c4ccccc4C(F)(F)F)nnc3c12`: inactive: -11.3%. With `COCCCn1c(=O)c2sccc2n2c(CCCC(=O)NC3CCC(C)CC3)nnc12` (stereo unspecified) the figure was inactive: -0.652%; with `Cc1cccc(NC(=O)C2CCN(S(=O)(=O)c3ccc4c(c3)CCCN4C(=O)C3CCC3)CC2)c1`, inactive: -7.97%.

On to `Cc1cccc(C)c1-n1ncc(C(=O)N2CCN(c3ncccn3)CC2)c1C1CCN(C(=O)OC(C)(C)C)CC1`, for which the “activation” value was inactive: 9.04%. With `CCCn1cc(S(=O)(=O)c2cc(C)ccc2C)c(=O)c2cc(F)c(N3CCN(CC)CC3)cc21` the figure was inactive: -22.3%; with `CCN1CCN(Cc2c(O)ccc3c(=O)c(Oc4ccccc4C(C)C)c(C(F)(F)F)oc23)CC1`, inactive: -5%; with `Cc1ccc(NC(=O)CSc2nc3ccc(NC(=O)CCc4ccccc4)cc3s2)cc1`, inactive: -7.9%.

As for `CCCN1CCN(CCCNC(=O)Cn2nc(C)n3c(cc4c(OC)cccc43)c2=O)CC1`, the “activation” value is inactive: -16.7%. Regarding `COc1cc(NC(=O)CSc2nc(-c3ccc(C(C)C)cc3)no2)cc(OC)c1`, the “activation” value was inactive: -10.4%.

For `COc1ccc(C(=O)N(Cc2ccc(N(C)C)cc2)CC2CCCO2)cc1` (stereo unspecified), the “activation” value is inactive: -5.46%. On to `COc1ccc(NC(=O)CSc2cn(CCNC(=O)c3c(F)cccc3F)c3ccccc23)cc1`, for which the “activation” value is inactive: -20.3%. As for `CCC(C)n1c(=N)c(C(=O)NC2CCCCC2)cc2c(=O)n3ccccc3nc21` (stereo unspecified), the “activation” value is inactive: -13%.

Consider `CC(=O)Nc1ccc2nc(NC(=O)CS(=O)(=O)c3ccc(C)cc3)sc2c1`, for which the “activation” value is inactive: -7.21%. In the case of `Cc1ccc(C)c(N2CCN(S(=O)(=O)c3cn(C)c(C)n3)CC2)c1`, the “activation” value is inactive: -4.48%. For the molecule `COc1ccc(C2=Nc3ccc(OC(F)(F)F)cc3NC(c3cccnc3)=N2)cc1`, the “activation” value was inactive: -5.66%. For `Cc1ccc(CNC(=O)c2cc3ccc4cccnc4c3[nH]2)cc1`, the “activation” value is inactive: -17.3%. Regarding `Cc1ccccc1CNC(=O)c1ccc2nc(C(C)C)oc2c1`, the “activation” value is inactive: -10.9%. As to `COc1cc(Cl)c(C)cc1NC(c1ccccc1)c1nnc(-c2ccccc2Cl)o1` (stereo unspecified), the “activation” value was inactive: -17.2%. With `COc1ccc(-c2noc(-c3ccc(NC4CCCC4)c([N+](=O)[O-])c3)n2)cc1OC` the figure was inactive: -7.77%; with `Cc1ccc(NC(=O)Cn2cnc3c2c(=O)n(C)c(=O)n3C)cc1C`, inactive: -9.62%. With `CCN(C(=O)Cn1c(=O)n(Cc2ccccc2)c(=O)c2c1c1cc(OC)ccc1n2C)c1ccccc1`, the “activation” value is inactive: -1.67%. As to `O=C(c1cccc(Cl)c1)N1c2ncnn2C2(CCCCC2)[C@@H]2CCCC[C@@H]21`, the “activation” value was inactive: -8.06%.

On to `Cc1ccc(Cl)cc1NC(=O)CCc1c(C)nc2c3cccnc3nn2c1C`, for which the “activation” value was inactive: 4.79%. Next, `Cc1ccc2c(=O)cc(C(=O)Nc3sc4c(c3C(=O)NCC3CCCO3)CCCC4)oc2c1C` (stereo unspecified): inactive: -2.59%; `CC(C)(C)OC(=O)N1CCC(c2c(C(=O)NCCN3CCOCC3)cnn2-c2ccc(F)cc2)CC1`: inactive: -8.29%. Take `Cc1ccc2c(c1)N(C(=O)N1CCC(C(=O)NCCc3ccccc3)CC1)CC(C)O2` (stereo unspecified): the “activation” value is inactive: -24.3%. Consider `COc1ccc(-c2ccc3c(N)c(C(=O)NCc4ccc(C)cc4)sc3n2)cc1`, for which the “activation” value was inactive: 10.6%. Next, `COc1ccc(N2Cc3cccc(C(=O)Nc4ccc(Cl)cc4)c3C2=O)cc1`: inactive: 13.1%; `COc1ccc(C)cc1NC(=O)C(Cc1ccccc1)NS(=O)(=O)c1ccc(Br)s1` (stereo unspecified): inactive: 2.38%; `O=C(COc1ccc(F)cc1)Nc1nnc(SCc2cc(=O)n3ccccc3n2)s1`: inactive: -24.3%.
